Laboratory results: the RNAGym collection of RNA variant scans (doi:10.1073/pnas.2313332121)
This sample is rich in variants without activity.

B1: TPR 5TU (parent)
chain: GGAUCUUCUCGAUCUAACAAAAAAGACAAAUCUGCCACAAAGCUUGAGAGCAUCUUCGGAUGCAGAGGCGGCAGCCUUCGGUGGCGCGAUAGCGCCAACGUUCUCAACUAUGACACGCAAAACGCGUGCUCCGUUGAAUGGAGUUUAUCAUG

Variants of: B1
Assay: polymerase ribozyme fitness, log enrichment relative to wild type (log ratio); higher = more active; in vitro selection for triplet polymerase activity
Outline: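 Mutant libraries for each subunit of a heterodimeric triplet polymerase ribozyme were made by PCR and then transcribed. Each library underwent one round of in vitro selection in triplicate: annealing with a biotinylated primer, the partner subunit and triplets, frozen incubation at −7 °C, gel excision of extended constructs, streptavidin-bead capture and RT-PCR. Input and output libraries were Illumina-sequenced, and only genotypes with ≥10 input reads and ≥1 read per output were kept. Fitness is the logarithm, base 2, of genotype enrichment over wild-type enrichment, computed from inverse-variance-weighted replicate averages.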

U6A A30U G42A G48C U56A G83U C105U G136U and U6C A107U C116U U146A cannot be ordered by “polymerase ribozyme fitness (log ratio)” value: at most -4.2 for the first, at most -4.2 for the second.

U6A U53A G86A A91C G128C and U6G A52C C96U C131A A142C cannot be ordered by “polymerase ribozyme fitness (log ratio)” value: at most -4.2 for the first, at most -4.2 for the second.

C5U A52C U61A C76A G88C and U6C C10U A20U G84A C85A cannot be ordered by “polymerase ribozyme fitness (log ratio)” value: at most -4.2 for the first, at most -4.2 for the second.

C5G U6A C35A A49C U55A C76G C85A and U6G A16G A21C A26U G42U U44A U77G C79U G128U cannot be ordered by “polymerase ribozyme fitness (log ratio)” value: at most -4.2 for the first, at most -4.2 for the second.

Going from C5U A12C A40C U61A C95U to C5G G94A C105G C116A G141C, the “polymerase ribozyme fitness (log ratio)” value falls from -2.18 to at most -4.2.

U6A C18A A21U U56G G68A A91U G128C U139A G143A and C5U U6C G11C G68C U90C C96U C99U C114G A120C A121C cannot be ordered by “polymerase ribozyme fitness (log ratio)” value: at most -4.2 for the first, at most -4.2 for the second.

C5U A24U C27G U53G C95U G100A and U6A A39G C85G A113G C118G U130G cannot be ordered by “polymerase ribozyme fitness (log ratio)” value: at most -4.2 for the first, at most -4.2 for the second.

C5U A20G G50C U56C U111A and U6A C27G C36G U53G C93A U104G cannot be ordered by “polymerase ribozyme fitness (log ratio)” value: at most -4.2 for the first, at most -4.2 for the second.

C5U A23U A24C G46A C96U A137U and C5U U9C G84U C116G C123G G133U cannot be ordered by “polymerase ribozyme fitness (log ratio)” value: at most -4.2 for the first, at most -4.2 for the second.

C5U C57U A60C G62A G65A G152A and U6A A22G U77A C116U C131U U145C cannot be ordered by “polymerase ribozyme fitness (log ratio)” value: at most -4.2 for the first, at most -4.2 for the second.

U6A A29U G81A G92C C114U and C5U A16C A17U C27U A49C U55G cannot be ordered by “polymerase ribozyme fitness (log ratio)” value: at most -4.2 for the first, at most -4.2 for the second.

C5G G67U G70C G86A C132G and U6G A17G C32U A41U C54U G74C C85A cannot be ordered by “polymerase ribozyme fitness (log ratio)” value: at most -4.2 for the first, at most -4.2 for the second.

U6C U13A G25C A49C U55C G58A C95U and U6A U53A G65C G83A C93U U139G cannot be ordered by “polymerase ribozyme fitness (log ratio)” value: at most -4.2 for the first, at most -4.2 for the second.

U6A U55G U61A C131U C132G and U6A A29G C51U C54A U56G C85U C118G cannot be ordered by “polymerase ribozyme fitness (log ratio)” value: at most -4.2 for the first, at most -4.2 for the second.

U6C A20U U53G G59U C69U C118A and C5U A17G U53A G70A C79U C85U A98G cannot be ordered by “polymerase ribozyme fitness (log ratio)” value: at most -4.2 for the first, at most -4.2 for the second.

U6C C27A A40G A66U C95A and U6C C43A A49U C76U A91U G94A C114U A115U A119U cannot be ordered by “polymerase ribozyme fitness (log ratio)” value: at most -4.2 for the first, at most -4.2 for the second.

C5G G70C G92U C129U and U6C U33G cannot be ordered by “polymerase ribozyme fitness (log ratio)” value: at most -4.2 for the first, at most -4.2 for the second.

C5G U7A U104G C108G G136C A138C and U6C C18U G59C A66U A73C U101G U139C U144A cannot be ordered by “polymerase ribozyme fitness (log ratio)” value: at most -4.2 for the first, at most -4.2 for the second.

Going from U6A U44G A47G G71A to C5U C38G C57U G84U A106C, the “polymerase ribozyme fitness (log ratio)” value rises from at most -4.2 to -3.

U6C C18G C93A A110U and U6C U53A G59A G83A U90G C118U C131U A137G A138C cannot be ordered by “polymerase ribozyme fitness (log ratio)” value: at most -4.2 for the first, at most -4.2 for the second.

U6G A16U A20U C54G A66G and U6G A60C A73C C87A C118U cannot be ordered by “polymerase ribozyme fitness (log ratio)” value: at most -4.2 for the first, at most -4.2 for the second.

C5U A22U U44G C93G and U6C C10U A49U A121U cannot be ordered by “polymerase ribozyme fitness (log ratio)” value: at most -4.2 for the first, at most -4.2 for the second.

U6A C51A C57U C76U C93A C123U C132G and C5U A21G A26U C43G C96G A98U cannot be ordered by “polymerase ribozyme fitness (log ratio)” value: at most -4.2 for the first, at most -4.2 for the second.

U6A A20U C27U G46A C87A and C5G U44C U53A C63A G71A U90C G94U G152U cannot be ordered by “polymerase ribozyme fitness (log ratio)” value: at most -4.2 for the first, at most -4.2 for the second.

C5G U15C C27U G50A C95A C99G U104G C129G and U6G A12C C14U A73U G81C G83U A91U A113U A138C cannot be ordered by “polymerase ribozyme fitness (log ratio)” value: at most -4.2 for the first, at most -4.2 for the second.

C5U A30G A52U C76G G94A C118U U148A and C5G G68C C93U C99G C108G U145C cannot be ordered by “polymerase ribozyme fitness (log ratio)” value: at most -4.2 for the first, at most -4.2 for the second.

Going from U6A C8G A12U A30C A47G G86U C105U to U6G A21C C75U U144A, the “polymerase ribozyme fitness (log ratio)” value rises from at most -4.2 to -0.201.

C5G U9A U44C U56G G84C A98U and U6G A39U C54A U55A A115G A150U cannot be ordered by “polymerase ribozyme fitness (log ratio)” value: at most -4.2 for the first, at most -4.2 for the second.

U6A G62A C76A A91U A121U C123A A138C G141U and U6C A24G A40U G62A A142G cannot be ordered by “polymerase ribozyme fitness (log ratio)” value: at most -4.2 for the first, at most -4.2 for the second.

U6C A24U C35G G50A C93U G94A C99U A107U G117A A147C and U6C G58A U61A G71U G133C cannot be ordered by “polymerase ribozyme fitness (log ratio)” value: at most -4.2 for the first, at most -4.2 for the second.

C5U U33C U53C G80A G92U C108U A122G and U6C C10G A37G C51U G94A G141A cannot be ordered by “polymerase ribozyme fitness (log ratio)” value: at most -4.2 for the first, at most -4.2 for the second.

Compared with C5U A121G, U6A G50U A60U C75U C95U is lower in “polymerase ribozyme fitness (log ratio)” value: 0.614 for the first, at most -4.2 for the second.

Going from U6A G83C to U6C G59U C85A C99G C118G, the “polymerase ribozyme fitness (log ratio)” value falls from -0.841 to at most -4.2.

C5U C105U A138U and U6A C18U A20C A22C U44C U55A C87A cannot be ordered by “polymerase ribozyme fitness (log ratio)” value: at most -4.2 for the first, at most -4.2 for the second.

U6C A20U C27G C57A A60U G112C C116U G140U and U6A A21U A39C A60G C75A A97G U101A U134G cannot be ordered by “polymerase ribozyme fitness (log ratio)” value: at most -4.2 for the first, at most -4.2 for the second.

First: C5U C32A A91U A97C
Second: U6G A40C
The “polymerase ribozyme fitness (log ratio)” value of the first is lower: at most -4.2 for the first, 1.13 for the second.

C5G U45A A73G G94A C105G C118G U135A A150G and U6A A20C A28C C36U C54G cannot be ordered by “polymerase ribozyme fitness (log ratio)” value: at most -4.2 for the first, at most -4.2 for the second.

U6C C10A A41U G48A G83C U111C and U6A U9C C38U G86C U102G cannot be ordered by “polymerase ribozyme fitness (log ratio)” value: at most -4.2 for the first, at most -4.2 for the second.

C5U G50A G68A G71U U77A C87U G143A and U6C G50A A73U C93G G100U A107G U109C A142C A150U cannot be ordered by “polymerase ribozyme fitness (log ratio)” value: at most -4.2 for the first, at most -4.2 for the second.

U6C C36A C95U A98G A150U and C5U U31A A52C A91C C105G G133U U144A cannot be ordered by “polymerase ribozyme fitness (log ratio)” value: at most -4.2 for the first, at most -4.2 for the second.

C5U A17G U55G G62C G84U and U6C A24C G71A C95U cannot be ordered by “polymerase ribozyme fitness (log ratio)” value: at most -4.2 for the first, at most -4.2 for the second.

U6C A21U A26U U44A A49C C95U A98U C123A G141C and C5U A29C G46C U90G C116U A150U cannot be ordered by “polymerase ribozyme fitness (log ratio)” value: at most -4.2 for the first, at most -4.2 for the second.
